In the supplement of paper PMC3334620:
Whole data set: some 33,000 sequences, median “E-score (-0.5 to 0.5)” near -0.054, cut for the highest 2% near 0.39. The list shows a part of the results.

Molecular target: Ylr278c (UniProt Q05854)
Assay: PBM E-score (8-mer binding enrichment) (E-score (-0.5 to 0.5)); higher = stronger / more preferred TF binding; most listed sequences are background and not binding sites
Conditions: protein concentration: 200 nM; construct: GST-DNA-binding domain
Method: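 Universal 'all 10-mer' protein binding microarrays (Agilent AMADID 015681) probed with GST-tagged S. cerevisiae TFs (full-length or DBD) made by in vitro transcription/translation (PURExpress), about 100-200 nM. Bound TF was detected with fluorescent anti-GST. Each ungapped 8-mer (which stands for itself and its reverse complement) is scored by the PBM enrichment score (E-score), a modified Wilcoxon-Mann-Whitney statistic from -0.5 to +0.5, computed with the Universal PBM Analysis Suite. Scale: above 0.35 generally sequence-specific binding.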

| Sequence | PBM E-score |
| --- | --- |
| AGCGGACT | 0.358 |
| AGGCCTAA | -0.139 |
| AACTCCCA | 0.155 |
| ACACCTTG | -0.262 |
| CCCCTGTC | -0.265 |
| CCGTTTTC | 0.112 |
| ATAATATG | 0.0874 |
| ACCTTGTA | -0.27 |
| CACGAAAA | -0.0651 |
| GATCCCTA | -0.0683 |
| GTCGGTGA | 0.141 |
| CAAAACTA | -0.057 |
| AAGCTGCC | -0.234 |
| AATCCTCA | -0.299 |
| CGCTATCA | -0.0187 |
| GGATCGAA | 0.0293 |
| CAACCGTA | -0.319 |
| AAATAGCG | -0.0148 |
| GACGCACC | -0.125 |
| CCGAGAAC | 0.269 |
| ACGCTGCA | -0.132 |
| AGGATCCA | -0.171 |

| Sequence | PBM E-score |
| --- | --- |
| AAGCTCAT | -0.128 |
| CCTCACCC | 0.158 |
| GCTCTCAC | -0.0541 |
| GCAAATCA | -0.0939 |
| ATATCGTC | -0.258 |
| AACCTCTT | 0.117 |
| AACGCTAC | -0.0542 |
| AAGTCCGC | 0.46 |
| CTCCGCTA | 0.368 |
| GCTACCGA | -0.00941 |
| CGCCTGCC | -0.0694 |
| AGGTCCGG | 0.418 |
| ACAGAACG | -0.124 |
| CGACTCCG | 0.406 |
| TGGGCAAA | -0.0454 |
| AAATAATC | -0.0227 |
| ACGCGTTC | 0.0444 |
| AAAGCGCA | 0.0052 |
| CTAAAATA | -0.138 |
| GAGCCATC | -0.224 |
| CCACGAAA | -0.18 |
| CCCTCCCG | 0.126 |

| Sequence | PBM E-score |
| --- | --- |
| CATGCCAA | -0.234 |
| ATGAAAGA | -0.168 |
| AACTCCCG | 0.365 |
| TTACTCAA | 0.0257 |
| ACTCGGCC | 0.16 |
| CTTCCCCC | -0.142 |
| ATGCATAC | -0.135 |
| AGTGGTGA | 0.0846 |
| AGCCATAG | -0.327 |
| ACAAAACA | -0.213 |
| CCGGACGC | 0.364 |
| ATGTAGTG | -0.17 |
| GTTATAAA | 0.00657 |
| CTCACAGA | -0.231 |
| AGTTGCAG | -0.142 |
| GTTAGTAA | -0.183 |
| AAGACTTG | -0.126 |
| ACTTGATA | -0.0344 |
| CTGCGCCC | -0.142 |
| CCTTTACC | -0.105 |
| CGATTGCG | 0.234 |
| AAGTAATG | 0.029 |

| Sequence | PBM E-score |
| --- | --- |
| AGTTCGCC | 0.0865 |
| ATGTGGCA | -0.0966 |
| AATGCTAG | -0.151 |
| CGGACGGC | 0.313 |
| AAGCGATA | -0.18 |
| CGGAGATC | 0.479 |
| CAACTCTA | -0.0308 |
| GTCAATAA | -0.0804 |
| TATGATGA | -0.143 |
| ACCTTATG | -0.283 |
| CGCTACAA | -0.0146 |
| GCGGGCGA | 0.275 |
| AAGTTTTG | -0.0901 |
| CGAAACGA | -0.104 |
| CAGTCGGA | 0.357 |
| AGATCTAC | -0.0677 |
| ATAGATGC | -0.0946 |
| GACCCGTA | -0.0778 |
| CTGAGTGC | -0.133 |
| CTACTAAA | -0.0349 |
